# Data from ChEMBL document CHEMBL5606458, “ASAP - ZIKV NS2B-NS3 protease fluorescence single point” (2024).
# Out of some 2,700 compounds screened, about 160 (5.9%) showed an effect of 50% or more. Some of the results follow.
# Target: Nonstructural protein 3 (Zika virus) (UniProt A0A024AXB9)
# [1] = PRVABC59, Concentration 15.0 uM, Number of replicates 1.0
# [2] = PRVABC59, Concentration 50.0 uM, Number of replicates 1.0
# UniProt A0A024AXB9, sequence (A0A024AXB9 as listed by the source): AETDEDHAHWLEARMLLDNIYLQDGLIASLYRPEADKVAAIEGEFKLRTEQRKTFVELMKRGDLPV
structure (smiles),measurement,setting,value
O=C(Nc1c(Cl)c(F)nc(F)c1Cl)c1cc(Cl)ccc1NS(=O)(=O)c1ccc(Oc2ccccc2Cl)cc1,inhibition,[1],21.1%
Cc1cc(NCCN(C)C)c2ccccc2n1,inhibition,"PRVABC59, Concentration 99.9 uM, Number of replicates 2.0, Standard deviation 3.7327696087272297 %",-1.69%
CN(C)C[C@H](O)CN1CCN(C(=O)c2cc(Cl)ccc2NS(=O)(=O)c2ccc(Oc3ccccc3Cl)cc2)CC1,inhibition,[1],-3.89%
CC(C)(CO)NC(=O)c1cc(Cl)cc(NC(=O)c2cccc(Cn3ccnc3)c2)c1,inhibition,"PRVABC59, Concentration 49.5 uM, Number of replicates 2.0, Standard deviation 1.5669899033725974 %",2.74%
same,inhibition,"PRVABC59, Concentration 99.01 uM, Number of replicates 2.0, Standard deviation 2.0470978888706237 %",4.64%
same,inhibition,"PRVABC59, Concentration 198.0 uM, Number of replicates 2.0, Standard deviation 1.6609681875389157 %",7.08%
COc1ccc(NC(C)=O)cc1NC(=O)c1cc(Cl)ccc1NS(=O)(=O)c1ccc(Oc2ccccc2Cl)cc1,inhibition,[1],55%
COc1cc(Cc2cccc(-c3nnn[nH]3)c2)nc(N2CCNCC2)n1,inhibition,"PRVABC59, Concentration 49.5 uM, Number of replicates 2.0, Standard deviation 1.4588737117543906 %",3.36%
same,inhibition,"PRVABC59, Concentration 99.01 uM, Number of replicates 2.0, Standard deviation 0.9966751865940986 %",6.34%
same,inhibition,"PRVABC59, Concentration 198.0 uM, Number of replicates 2.0, Standard deviation 2.7085217009562133 %",13.2%
Cc1cc(CO)c2cccc(C[C@H](NC(=O)Cc3cccc(CN)c3)C(=O)O)c2n1,inhibition,"PRVABC59, Concentration 49.95 uM, Number of replicates 2.0, Standard deviation 1.661005908968333 %",-1.72%
same,inhibition,"PRVABC59, Concentration 99.9 uM, Number of replicates 2.0, Standard deviation 1.2746087015891263 %",6.96%
COc1cc(CCNC(=O)c2cc(Cl)ccc2NS(=O)(=O)c2ccc(Oc3ccccc3Cl)cc2)cc(OC)c1,inhibition,[1],28.3%
Cn1nccc1NS(=O)(=O)c1ccc(Oc2ccccc2)cc1,inhibition,"PRVABC59, Concentration 49.5 uM, Number of replicates 2.0, Standard deviation 3.2732797772270357 %",0.602%
same,inhibition,"PRVABC59, Concentration 99.01 uM, Number of replicates 2.0, Standard deviation 3.1579316394829813 %",2.37%
same,inhibition,"PRVABC59, Concentration 198.0 uM, Number of replicates 2.0, Standard deviation 2.940293290063805 %",6.53%
O=Cc1ccc(N2CCC(C(=O)N3CCCN(CCCc4ccccc4)CC3)CC2)cc1,inhibition,[2],26.9%
Cc1cc(CO)c2cccc(Cc3cccc(C(=O)N(c4ncccn4)S(=O)(=O)c4ccc(N)cc4)c3)c2n1,inhibition,"PRVABC59, Concentration 49.95 uM, Number of replicates 2.0, Standard deviation 0.9333358068338657 %",1.86%
same,inhibition,"PRVABC59, Concentration 99.9 uM, Number of replicates 2.0, Standard deviation 0.5295896500552713 %",17.8%
CCc1cc(Br)ccc1NC(=O)c1cc(Cl)ccc1NS(=O)(=O)c1ccc(Oc2ccccc2Cl)cc1,inhibition,[1],41.5%
N#Cc1cc(F)c(NC(=O)c2cc(Cl)ccc2NS(=O)(=O)c2ccc(Oc3ccccc3Cl)cc2)cc1F,inhibition,[1],24.1%
O=Cc1ccc(N2CCC(C(=O)N3CCN(CCc4cccs4)CC3)CC2)cc1,inhibition,[2],19.2%
O=Cc1ccc(N2CCC(C(=O)Nc3cccc(F)c3[N+](=O)[O-])CC2)cc1,inhibition,[2],30.3%
O=C(NCCc1cccc2ccccc12)c1cc(Cl)ccc1NS(=O)(=O)c1ccc(Oc2ccccc2Cl)cc1,inhibition,[1],11%
Cc1cc(CO)c2cccc(NC(=O)C3(C(N)=O)CC3)c2n1,inhibition,"PRVABC59, Concentration 49.95 uM, Number of replicates 2.0, Standard deviation 2.634525996312183 %",7.37%
same,inhibition,"PRVABC59, Concentration 99.9 uM, Number of replicates 2.0, Standard deviation 2.529144039344272 %",18.3%
O=C(c1cc(Cl)ccc1NS(=O)(=O)c1ccc(Oc2ccccc2Cl)cc1)N1CCN(C(=O)[C@@H]2COc3ccccc3O2)CC1,inhibition,[1],19.9%
Cc1cc(NC(=O)C2CCN(c3ccc(C=O)cc3)CC2)c(Cl)cc1F,inhibition,[2],22.4%
O=C(Nc1cccc(Cl)c1Br)c1cc(Cl)ccc1NS(=O)(=O)c1ccc(Oc2ccccc2Cl)cc1,inhibition,[1],25.4%
Cc1c(C2CCN(C(=O)OC(C)(C)C)CC2)cnn1CC(=O)N[C@H]1CCS(=O)(=O)C1,inhibition,"PRVABC59, Concentration 49.5 uM, Number of replicates 2.0, Standard deviation 2.871590407729197 %",-1.78%
same,inhibition,"PRVABC59, Concentration 99.01 uM, Number of replicates 2.0, Standard deviation 2.4383678198467202 %",-1.5%
same,inhibition,"PRVABC59, Concentration 198.0 uM, Number of replicates 2.0, Standard deviation 2.1998965466264124 %",-1.28%
CN(C(=O)c1cc(Cl)ccc1NS(=O)(=O)c1ccc(Oc2ccccc2Cl)cc1)C(c1ccccc1)c1ccccc1,inhibition,[1],25.2%
Cc1cnc(NC(=O)C2CCN(c3ccc(C=O)cc3)CC2)c([N+](=O)[O-])c1,inhibition,[2],6.33%
Cc1sc(NC(=O)C2CCN(c3ccc(C=O)cc3)CC2)nc1-c1ccc(Cl)cc1,inhibition,[2],33.1%
Cc1cc(CO)c2cccc(Nc3cncc(C(=O)O)c3)c2n1,inhibition,"PRVABC59, Concentration 49.95 uM, Number of replicates 2.0, Standard deviation 3.251758163384524 %",-6.6%
same,inhibition,"PRVABC59, Concentration 99.9 uM, Number of replicates 2.0, Standard deviation 2.9055058713587925 %",-3.84%
O=Cc1ccc(N2CCC(C(=O)Nc3ccc([N+](=O)[O-])cc3Cl)CC2)cc1,inhibition,[2],39.8%
COc1cc(CS(=O)(=O)CCC(C)(C)OC)nc(N2CCNCC2)n1,inhibition,"PRVABC59, Concentration 49.5 uM, Number of replicates 2.0, Standard deviation 3.2478539322195656 %",3.44%
same,inhibition,"PRVABC59, Concentration 99.01 uM, Number of replicates 2.0, Standard deviation 0.002563371326432575 %",3.67%
same,inhibition,"PRVABC59, Concentration 198.0 uM, Number of replicates 2.0, Standard deviation 1.361176305381774 %",3.07%
O=Cc1ccc(N2CCC(C(=O)NCc3cc(C(F)(F)F)ccc3C(F)(F)F)CC2)cc1,inhibition,"PRVABC59, Concentration 10.0 uM, Number of replicates 1.0",-8.15%
CCOc1ccc(N2CCN(C(=O)c3cc(Cl)ccc3NS(=O)(=O)c3ccc(Oc4ccccc4Cl)cc3)CC2)cc1,inhibition,[1],2.48%
O=C(c1cc(Cl)ccc1NS(=O)(=O)c1ccc(Oc2ccccc2Cl)cc1)N1CCN(c2cnccn2)CC1,inhibition,[1],-5.97%
O=C(Nc1ncc(Br)c(C(F)(F)F)n1)c1cc(Cl)ccc1NS(=O)(=O)c1ccc(Oc2ccccc2Cl)cc1,inhibition,[1],24.7%
Cn1cc2ccc(C(=O)N3CC[C@H](c4c[nH]c5ccccc45)C3)cc2n1,inhibition,"PRVABC59, Concentration 49.5 uM, Number of replicates 2.0, Standard deviation 1.3627602471690863 %",0.678%
same,inhibition,"PRVABC59, Concentration 99.01 uM, Number of replicates 2.0, Standard deviation 2.2047700920868487 %",3.89%
same,inhibition,"PRVABC59, Concentration 198.0 uM, Number of replicates 2.0, Standard deviation 2.209951457055384 %",10.5%
NCc1cn([C@H]2CCCN(C(=O)c3cccc4cn[nH]c34)C2)nn1,inhibition,"PRVABC59, Concentration 49.5 uM, Number of replicates 2.0, Standard deviation 2.125573466336574 %",-0.091%
same,inhibition,"PRVABC59, Concentration 99.01 uM, Number of replicates 2.0, Standard deviation 0.8304286285168175 %",3.6%
same,inhibition,"PRVABC59, Concentration 198.0 uM, Number of replicates 2.0, Standard deviation 0.5697829078439883 %",9.87%
O=C(Nc1nc(CO)cs1)[C@]1(c2ccc(F)cc2)CCCNC1,inhibition,"PRVABC59, Concentration 49.5 uM, Number of replicates 2.0, Standard deviation 4.196319614731872 %",0.769%
same,inhibition,"PRVABC59, Concentration 99.01 uM, Number of replicates 2.0, Standard deviation 3.2888686531591844 %",2.69%
same,inhibition,"PRVABC59, Concentration 198.0 uM, Number of replicates 2.0, Standard deviation 2.8761580092162924 %",3.38%
CCc1cccc(S(=O)(=O)Nc2ccc(Cl)cc2C(=O)NC)c1,inhibition,"PRVABC59, Concentration 49.5 uM, Number of replicates 2.0, Standard deviation 0.7566890081243395 %",-8.25%
O=Cc1ccc(N2CCC(C(=O)N3CCN(CCOCCO)CC3)CC2)cc1,inhibition,[2],21.2%
N#C[C@@H](NC(=O)c1cc(Cl)ccc1NS(=O)(=O)c1ccc(Oc2ccccc2Cl)cc1)c1ccc(F)cc1,inhibition,[1],28.7%
O=C(c1cc(Cl)ccc1NS(=O)(=O)c1ccc(Oc2ccccc2Cl)cc1)N1CCC(Oc2ccccc2C(F)(F)F)CC1,inhibition,[1],12%
COc1cc2c(cc1NC(=O)C1CCN(c3ccc(C=O)cc3)CC1)oc1ccccc12,inhibition,[2],22.2%
Cc1cc(CO)c2cccc(NC(=O)c3ccc(O)cc3)c2n1,inhibition,"PRVABC59, Concentration 49.95 uM, Number of replicates 2.0, Standard deviation 1.6158427369500596 %",6.25%
same,inhibition,"PRVABC59, Concentration 99.9 uM, Number of replicates 2.0, Standard deviation 2.664634356189213 %",18.4%
